# Results: the supplement of paper PMC8728848
# The list shows a part of the results.
# B1: Surfactant Protein D (Human); Neck + Carbohydrate Recognition Domain (NCRD) (Homo sapiens) (protein)
# chain: MLLFLLSALVLLTQPLGYLEAEMKTYSHRTMPSACTLVMCSSVESGLPGRDRDGREGPRGEKGDPGLPGAAGQAGMPGQAGPVGPKGDNGSVGEPGPKGDTGPSGPPGPPGVPGPAGREGALGKQGNIGPQGKPGPKGEAGPKGEVGAPGMQGSAGARGLAGPKGERGVPGERGVPGNTGAAGSAGAMGPQGSPGARGPPGLKGDKGIPGDKGAKGESGLPDVASLRQQVEALQGQVQHLQAAFSQYKKVELFPNGQSVGEKIFKTAQFVKPFTEAQLLCTQAGGQLASPRSAAENAALQQLVVAKNEAAFLSMTDSKTEGKFTYPTGESLVYSNWAPGEPNDDGGSEDCVEIFTNGKWNDVACGEKRLVVCEF
# Key:
# Experiment in all cases: glycan array binding signal (z-score within array); higher = stronger binding
# Conditions in all cases: glycan notation: IUPAC condensed, linker removed; mutation: R343V
# Gal(b1-3)GlcNAc = target: Gal(b1-3)GlcNAc
# Summary of the method: (§1)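 Columns mapping to the same glycan were averaged after glycan names were converted to IUPAC-condensed notation. The data come from 3228 arrays in the Consortium for Functional Glycomics database, limited to those with an available protein sequence. Binding is reported as a within-array Z-score averaged across arrays of one protein sequence and across linkers.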
# [1] = target: Gal(b1-3)GlcNAc(b1-2)Man(a1-3)[Gal(b1-3)GlcNAc(b1-2)Man(a1-6)]Man(b1-4)GlcNAc(b1-4)GlcNAc
# Summary of the method: as §1
# [2] = target: Gal(b1-3)GlcNAc(b1-3)Gal(b1-3)GlcNAc
# Summary of the method: as §1
# [3] = target: Gal(b1-3)GlcNAc(b1-3)Gal(b1-4)Glc
# Summary of the method: as §1
# [4] = target: Gal(b1-3)GlcNAc(b1-3)Gal(b1-4)GlcNAc
# Summary of the method: as §1
# [5] = target: Gal(b1-3)[Fuc(a1-4)]GlcNAc
# Summary of the method: as §1
# [6] = target: Gal(b1-3)[Fuc(a1-4)]GlcNAc(b1-3)Gal(b1-3)[Fuc(a1-4)]GlcNAc
# Summary of the method: as §1
# [7] = target: Gal(b1-3)[Fuc(a1-4)]GlcNAc(b1-3)Gal(b1-4)GlcNAc
# Summary of the method: as §1
# [8] = target: Gal(b1-3)[Fuc(a1-4)]GlcNAc(b1-3)Gal(b1-4)[Fuc(a1-3)]GlcNAc
# Summary of the method: as §1
# [9] = target: Gal(b1-3)[GlcNAc(b1-6)]GalNAc
# Summary of the method: as §1
# [10] = target: Gal(b1-3)[Neu5Ac(a2-6)]GalNAc
# Summary of the method: as §1
# [11] = target: Gal(b1-3)[Neu5Ac(a2-6)]GlcNAc(b1-6)Gal(b1-4)Glc
# Summary of the method: as §1
# [12] = target: Gal(b1-3)[Neu5Ac(b2-6)]GalNAc
# Summary of the method: as §1
# [13] = target: Gal(b1-4)GalNAc(a1-3)[Fuc(a1-2)]Gal(b1-4)GlcNAc
# Summary of the method: as §1
# [14] = target: Gal(b1-4)GalNAc(b1-3)[Fuc(a1-2)]Gal(b1-4)GlcNAc
# Summary of the method: as §1
# Gal(b1-4)Glc = target: Gal(b1-4)Glc
# Summary of the method: as §1
# Gal(b1-4)Glc6S = target: Gal(b1-4)Glc6S
# Summary of the method: as §1
# Gal(b1-4)GlcNAc = target: Gal(b1-4)GlcNAc
# Summary of the method: as §1
# [15] = target: Gal(b1-4)GlcNAc(a1-6)Gal(b1-4)GlcNAc
# Summary of the method: as §1
# [16] = target: Gal(b1-4)GlcNAc(b1-2)Man(a1-3)[Gal(b1-4)GlcNAc(b1-2)Man(a1-6)]Man(b1-4)GlcNAc(b1-4)GlcNAc
# Summary of the method: as §1
# [17] = target: Gal(b1-4)GlcNAc(b1-3)Gal(b1-3)GlcNAc
# Summary of the method: as §1
# [18] = target: Gal(b1-4)GlcNAc(b1-3)Gal(b1-4)Glc
# Summary of the method: as §1
# [19] = target: Gal(b1-4)GlcNAc(b1-3)Gal(b1-4)GlcNAc
# Summary of the method: as §1
# [20] = target: Gal(b1-4)GlcNAc(b1-3)Gal(b1-4)GlcNAc(b1-3)Gal(b1-4)GlcNAc
# Summary of the method: as §1
# [21] = target: Gal(b1-4)GlcNAc(b1-3)Gal(b1-4)[Fuc(a1-3)]GlcNAc(b1-3)Gal(b1-4)[Fuc(a1-3)]GlcNAc
# Summary of the method: as §1
# [22] = target: Gal(b1-4)GlcNAc(b1-3)GalNAc
# Summary of the method: as §1
# [23] = target: Gal(b1-4)GlcNAc(b1-3)[Gal(b1-4)GlcNAc(b1-6)]Gal(b1-4)GlcNAc
# Summary of the method: as §1
# [24] = target: Gal(b1-4)GlcNAc(b1-3)[GlcNAc(b1-6)]Gal(b1-4)GlcNAc
# Summary of the method: as §1
# [25] = target: Gal(b1-4)GlcNAc(b1-6)Gal(b1-4)GlcNAc
# Summary of the method: as §1
# [26] = target: Gal(b1-4)GlcNAc(b1-6)Gal(b1-4)GlcNAc(b1-6)GalNAc
# Summary of the method: as §1
# [27] = target: Gal(b1-4)GlcNAc(b1-6)GalNAc
# Summary of the method: as §1
# [28] = target: Gal(b1-4)GlcNAc(b1-6)[Gal(b1-3)]GalNAc
# Summary of the method: as §1
# Gal3S(b1-3)GalNAc = target: Gal3S(b1-3)GalNAc
# Summary of the method: as §1
# Gal3S(b1-3)GlcNAc = target: Gal3S(b1-3)GlcNAc
# Summary of the method: as §1
# [29] = target: Gal3S(b1-3)[Fuc(a1-4)]GlcNAc
# Summary of the method: as §1
# Gal3S(b1-4)Glc = target: Gal3S(b1-4)Glc
# Summary of the method: as §1
# Gal3S(b1-4)Glc6S = target: Gal3S(b1-4)Glc6S
# Summary of the method: as §1
# Gal3S(b1-4)GlcNAc = target: Gal3S(b1-4)GlcNAc
# Summary of the method: as §1
binder,measurement,setting,value
B1,glycan array binding signal (z-score),Gal(b1-3)GlcNAc,-0.532
same,glycan array binding signal (z-score),[1],-0.61
same,glycan array binding signal (z-score),[2],-0.538
same,glycan array binding signal (z-score),[3],-0.569
same,glycan array binding signal (z-score),[4],-0.457
same,glycan array binding signal (z-score),[5],0.524
same,glycan array binding signal (z-score),[6],1.38
same,glycan array binding signal (z-score),[7],-0.512
same,glycan array binding signal (z-score),[8],2.11
same,glycan array binding signal (z-score),[9],-0.547
same,glycan array binding signal (z-score),[10],-0.534
same,glycan array binding signal (z-score),[11],-0.498
same,glycan array binding signal (z-score),[12],-0.539
same,glycan array binding signal (z-score),[13],-0.523
same,glycan array binding signal (z-score),[14],-0.557
same,glycan array binding signal (z-score),Gal(b1-4)Glc,-0.595
same,glycan array binding signal (z-score),Gal(b1-4)Glc6S,-0.372
same,glycan array binding signal (z-score),Gal(b1-4)GlcNAc,-0.574
same,glycan array binding signal (z-score),[15],-0.555
same,glycan array binding signal (z-score),[16],-0.543
same,glycan array binding signal (z-score),[17],-0.526
same,glycan array binding signal (z-score),[18],-0.354
same,glycan array binding signal (z-score),[19],-0.282
same,glycan array binding signal (z-score),[20],-0.442
same,glycan array binding signal (z-score),[21],-0.362
same,glycan array binding signal (z-score),[22],-0.594
same,glycan array binding signal (z-score),[23],-0.488
same,glycan array binding signal (z-score),[24],-0.407
same,glycan array binding signal (z-score),[25],-0.496
same,glycan array binding signal (z-score),[26],-0.392
same,glycan array binding signal (z-score),[27],-0.546
same,glycan array binding signal (z-score),[28],-0.555
same,glycan array binding signal (z-score),Gal3S(b1-3)GalNAc,-0.355
same,glycan array binding signal (z-score),Gal3S(b1-3)GlcNAc,-0.225
same,glycan array binding signal (z-score),[29],-0.178
same,glycan array binding signal (z-score),Gal3S(b1-4)Glc,-0.335
same,glycan array binding signal (z-score),Gal3S(b1-4)Glc6S,-0.317
same,glycan array binding signal (z-score),Gal3S(b1-4)GlcNAc,-0.354
